In the supplement of paper PMC4604168 (melanoma cell lines):
The other results are listed elsewhere or left out. Single values are uncertain, as repeats are few or missing.

Legend:
Experiment in all cases: cell count relative to DMSO control; melanoma cells; higher = more viable cells
Conditions in all cases: library dose: low library concentration; 72 h
MZ2-MEL = test system: MZ2-MEL
MeWo = test system: MeWo
RPMI7951 = test system: RPMI7951
RVH-421 = test system: RVH-421
SkMel28 = test system: SkMel28
SkMel2 = test system: SkMel2
SkMel30 = test system: SkMel30
SkMel5 = test system: SkMel5
UACC257 = test system: UACC257
UACC62 = test system: UACC62
WM115 = test system: WM115
WM1716 = test system: WM1716
WM1745 = test system: WM1745
WM3526 = test system: WM3526
WM3619 = test system: WM3619
WM451Lu = test system: WM451Lu
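Further: cell number obtained by counting DAPI-stained nuclei in high-throughput microscope images with image analysis software, screen run in 1,536-well plates.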

Compound	cell count (MZ2-MEL) [%]	cell count (MeWo) [%]	cell count (RPMI7951) [%]	cell count (RVH-421) [%]	cell count (SkMel28) [%]	cell count (SkMel2) [%]	cell count (SkMel30) [%]	cell count (SkMel5) [%]	cell count (UACC257) [%]	cell count (UACC62) [%]	cell count (WM115) [%]	cell count (WM1716) [%]	cell count (WM1745) [%]	cell count (WM3526) [%]	cell count (WM3619) [%]	cell count (WM451Lu) [%]
COc1cc([C@@H]2c3cc4c(cc3[C@@H](O[C@@H]3O[C@@H]5CO[C@@H](C)O[C@H]5[C@H](O)[C@H]3O)[C@H]3COC(=O)[C@H]23)OCO4)cc(OC)c1O [etoposide] + CN(NC(=O)CC(=O)NN(C)C(=S)c1ccccc1)C(=S)c1ccccc1 [STA4783] (first compound 0.02 µM, partner dose 0.006 µM)	90.6	92.5	106	67.8	83	98.6	77.5	108	72.6	91.3	86.1	74	51.2	106	66.8	127
Cn1cnc2c(F)c(Nc3ccc(Br)cc3Cl)c(C(=O)NOCCO)cc21 [selumetinib] + CC1(C)NC(=O)N(c2ccc([N+](=O)[O-])c(C(F)(F)F)c2)C1=O [nilutamide] (first compound 0.015 µM, partner dose 1 µM)	95	86.7	135	85.3	94.2	82.4	66.5	97.6	75.3	85.7	110	103	94.6	68.9	83.5	107
CCN(CC)CCNC(=O)c1c(C)[nH]c(/C=C2\C(=O)Nc3ccc(F)cc32)c1C [sunitinib] + N#Cc1c(O)c2c(-c3ccc(-c4ccccc4O)cc3)csc2[nH]c1=O [A769662] (first compound 0.4 µM, partner dose 2 µM)	104	75.1	113	118	91.9	116	104	93.6	87	97.8	106	134	84.2	102	103	111
CCN(CC)CCNC(=O)c1c(C)[nH]c(/C=C2\C(=O)Nc3ccc(F)cc32)c1C [sunitinib] + COc1cc2ncnc(Nc3ccc(Oc4ccccc4)cc3)c2cc1OC [SrcI1] (first compound 0.4 µM, partner dose 2 µM)	103	76	106	99.8	96.5	123	89.5	96	103	101	101	146	70.7	62.6	112	93.6
CCN(CC)CCNC(=O)c1c(C)[nH]c(/C=C2\C(=O)Nc3ccc(F)cc32)c1C [sunitinib] + CN(NC(=O)CC(=O)NN(C)C(=S)c1ccccc1)C(=S)c1ccccc1 [STA4783] (first compound 0.4 µM, partner dose 0.006 µM)	102	89.3	106	13.4	69.5	120	87.4	86	95.8	77.1	76.3	97	59.2	88	121	90.7
COc1cc([C@@H]2c3cc4c(cc3[C@@H](O[C@@H]3O[C@@H]5CO[C@@H](C)O[C@H]5[C@H](O)[C@H]3O)[C@H]3COC(=O)[C@H]23)OCO4)cc(OC)c1O [etoposide] + NC(=O)Nc1cc(-c2cccc(F)c2)sc1C(=O)N[C@H]1CCCNC1 [AZD7762] (first compound 0.02 µM, partner dose 0.02 µM)	106	87.9	84	123	120	99.3	96.5	108	97.3	75.5	89.7	74.1	85.3	89.1	39.2	91.3
C[C@]1(O)C[C@@H](c2nc(-c3ccc4ccc(-c5ccccc5)nc4c3)c3c(N)nccn32)C1 + O=C(CCCCCCC(=O)Nc1ccccc1)NO [vorinostat] (first compound 0.4 µM, partner dose 0.08 µM)	98.8	93.8	100	101	63.1	90.2	91.9	68.9	65.9	73.7	104	97.3	90.5	70.3	81.6	80.5
COc1cc([C@@H]2c3cc4c(cc3[C@@H](O[C@@H]3O[C@@H]5CO[C@@H](C)O[C@H]5[C@H](O)[C@H]3O)[C@H]3COC(=O)[C@H]23)OCO4)cc(OC)c1O [etoposide] + COc1ccc(-c2ccc3c(N4CCOCC4)nc(N4C[C@@H](C)O[C@@H](C)C4)nc3n2)cc1CO [KU0063794] (first compound 0.02 µM, partner dose 0.02 µM)	89.7	105	103	109	73.7	99.1	91.1	88.7	98.2	94	82.4	91.5	95.9	96.7	90.8	75.8
CCN(CC)CCNC(=O)c1c(C)[nH]c(/C=C2\C(=O)Nc3ccc(F)cc32)c1C [sunitinib] + OCCn1cc(-c2cnc3nnn(Cc4ccc5ncccc5c4)c3n2)cn1 [PF04217903] (first compound 0.4 µM, partner dose 1 µM)	104	88.3	108	123	94.9	124	76.2	114	87.5	81.3	110	118	93.9	81.1	151	116
C[C@]1(O)C[C@@H](c2nc(-c3ccc4ccc(-c5ccccc5)nc4c3)c3c(N)nccn32)C1 + N#Cc1c(O)c2c(-c3ccc(-c4ccccc4O)cc3)csc2[nH]c1=O [A769662] (first compound 0.4 µM, partner dose 2 µM)	99.3	85.2	107	92.5	87.5	86.3	90.1	98.7	88	91.4	96.6	113	85.5	86.8	87.8	92.4
COc1cc([C@@H]2c3cc4c(cc3[C@@H](O[C@@H]3O[C@@H]5CO[C@@H](C)O[C@H]5[C@H](O)[C@H]3O)[C@H]3COC(=O)[C@H]23)OCO4)cc(OC)c1O [etoposide] + O=C(Nc1cccc(Cl)c1)Nc1ncc(CCNc2ncnc3ccsc23)s1 [SNS314] (first compound 0.02 µM, partner dose 0.0008 µM)	95.2	104	97.2	73.4	70.2	98.2	95.7	94.6	59.9	76.1	58.4	66.6	96.1	76.4	88.5	123
C[C@]1(O)C[C@@H](c2nc(-c3ccc4ccc(-c5ccccc5)nc4c3)c3c(N)nccn32)C1 + CC1(C)NC(=O)N(c2ccc([N+](=O)[O-])c(C(F)(F)F)c2)C1=O [nilutamide] (first compound 0.4 µM, partner dose 1 µM)	99.4	99.1	99.4	81.8	96.3	86.5	146	100	92.5	102	97.9	112	84.4	110	142	79.4
CCN(CC)CCNC(=O)c1c(C)[nH]c(/C=C2\C(=O)Nc3ccc(F)cc32)c1C [sunitinib] + Oc1nc(-c2ccc(C(F)(F)F)cc2)nc2c1CSCC2 [XAV939] (first compound 0.4 µM, partner dose 2 µM)	102	85.9	106	124	77.1	105	75.5	72.4	80	82.9	102	98.7	66.4	73.5	98.8	93.6
Cn1cnc2c(F)c(Nc3ccc(Br)cc3Cl)c(C(=O)NOCCO)cc21 [selumetinib] + N#Cc1c(O)c2c(-c3ccc(-c4ccccc4O)cc3)csc2[nH]c1=O [A769662] (first compound 0.015 µM, partner dose 2 µM)	111	96.2	102	92.8	85	78	66.2	122	107	71.8	92.2	109	96.9	81.4	85.7	106
Cn1cnc2c(F)c(Nc3ccc(Br)cc3Cl)c(C(=O)NOCCO)cc21 [selumetinib] + COc1ccc(-c2ccc3c(N4CCOCC4)nc(N4C[C@@H](C)O[C@@H](C)C4)nc3n2)cc1CO [KU0063794] (first compound 0.015 µM, partner dose 0.02 µM)	101	86.6	93.8	58.3	66.4	85	30.7	113	69.9	61.4	78.4	127	115	27.6	93.4	85.5
Cn1cnc2c(F)c(Nc3ccc(Br)cc3Cl)c(C(=O)NOCCO)cc21 [selumetinib] + O=C1NC(=O)/C(=C/c2ccc(-c3ccc(F)cc3O)o2)S1 [AS252424] (first compound 0.015 µM, partner dose 1 µM)	66.8	95.4	125	89.4	82.6	67.9	71.3	118	84.6	73.5	81.2	99.1	95.5	52.3	68.3	96
CCN(CC)CCNC(=O)c1c(C)[nH]c(/C=C2\C(=O)Nc3ccc(F)cc32)c1C [sunitinib] + COC(=O)c1sccc1S(=O)(=O)Nc1ccc(Nc2ccccc2)cc1OC [GSK0660] (first compound 0.4 µM, partner dose 1 µM)	98.1	92.2	94.4	124	98.8	116	82.2	104	110	84.3	102	132	82.6	91.6	143	96.3
Cn1cnc2c(F)c(Nc3ccc(Br)cc3Cl)c(C(=O)NOCCO)cc21 [selumetinib] + COc1ccc(COc2ccc(Cc3cnc(N)nc3N)cc2OC)cc1 [GW2580] (first compound 0.015 µM, partner dose 1 µM)	114	103	127	92.2	93.4	81	81.4	126	90.6	79.7	88.4	123	101	88.7	89	112
